Reference: publication PMC8775565
Positions count from the first letter of the chain named. Names and notes keep the numbering of the source. Results are given in words; binding and its absence hold for the method and conditions named. Some entries that bind do so weakly or less than the wild type.

The chains behind the UniProt entries cited, without tags or fusion partners.
UniProt P49841: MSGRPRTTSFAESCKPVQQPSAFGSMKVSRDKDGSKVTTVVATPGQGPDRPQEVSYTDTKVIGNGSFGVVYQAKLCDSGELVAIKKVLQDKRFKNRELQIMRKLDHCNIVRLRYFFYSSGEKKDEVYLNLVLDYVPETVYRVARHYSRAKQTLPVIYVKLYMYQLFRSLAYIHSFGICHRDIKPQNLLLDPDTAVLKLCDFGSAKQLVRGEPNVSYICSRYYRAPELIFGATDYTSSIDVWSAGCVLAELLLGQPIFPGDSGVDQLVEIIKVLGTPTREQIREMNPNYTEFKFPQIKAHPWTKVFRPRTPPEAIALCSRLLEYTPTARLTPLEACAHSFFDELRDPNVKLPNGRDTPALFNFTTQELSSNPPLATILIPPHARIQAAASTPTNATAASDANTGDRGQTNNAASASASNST

B1: glycogen synthase kinase interaction protein (GSKIP), wild type, full length (protein, UniProt Q9P0R6 1-139)
chain: METDCNPMELSSMSGFEEGSELNGFEGTDMKDMRLEAEAVVNDVLFAVNNMFVSKSLRCADDVAYINVETKERNRYCLELTEAGLKVVGYAFDQVDDHLQTPYHETVYSLLDTLSPAYREAFGNALLQRLEALKRDGQS
B2: GSKIP Y118F (full length) (protein, UniProt Q9P0R6 1-139)
chain: B1 chain with Y118F
B3: GSKIP L126P (full length) (protein, UniProt Q9P0R6 1-139)
chain: B1 chain with L126P
B4: GSKIP L130A (full length) (protein, UniProt Q9P0R6 1-139)
chain: B1 chain with L130A
B5: GSKIP F122P (full length) (protein, UniProt Q9P0R6 1-139)
chain: B1 chain with F122P
B6: GSKIP L130P (full length) (protein, UniProt Q9P0R6 1-139)
chain: B1 chain with L130P
B7: GSKIP L126Q (full length) (protein, UniProt Q9P0R6 1-139)
chain: B1 chain with L126Q
B8: GSKIP L126V (full length) (protein, UniProt Q9P0R6 1-139)
chain: B1 chain with L126V
B9: GSKIP L130I (full length) (protein, UniProt Q9P0R6 1-139)
chain: B1 chain with L130I
B10: GSKIP F122A (full length) (protein, UniProt Q9P0R6 1-139)
chain: B1 chain with F122A
B11: GSKIP L126A (full length) (protein, UniProt Q9P0R6 1-139)
chain: B1 chain with L126A
B12: GSKIP Y118A (full length) (protein, UniProt Q9P0R6 1-139)
chain: B1 chain with Y118A
B13: GSKIP Y118P (full length) (protein, UniProt Q9P0R6 1-139)
chain: B1 chain with Y118P
B14: GSKIP L130V (full length) (protein, UniProt Q9P0R6 1-139)
chain: B1 chain with L130V
B15: GSKIP F122Y (full length) (protein, UniProt Q9P0R6 1-139)
chain: B1 chain with F122Y

target: glycogen synthase kinase-3β (GSK3β) (UniProt P49841); assay: two-hybrid; … Two-Hybrid System 2 (Gal4), YRG-2 yeast; pAS2-1-GSK3β bait and pACT2 prey cotransfected; G2 plates deficient in tryptophan and leucine, G3 plates deficient in histidine; blue colour in the colony filter lift (β-galactosidase) assay on G3 plates = positive interaction; semiquantitative grades

binding	Binder
no binding	SPAYREAFGNALLQRIEALKRDGQS (peptide, UniProt Q9P0R6 115-139) [GSKIPtide (115–139) L130I]
binds	SPAYREAFGNALLQRLEALKRDGQS (peptide, UniProt Q9P0R6 115-139) [GSKIPtide (115–139), wild type]
no binding	SPAYREAFGNAQLQRLEALKRDGQS (peptide, UniProt Q9P0R6 115-139) [GSKIPtide (115–139) L126Q]
no binding	SPAYREAFGNALLQRVEALKRDGQS (peptide, UniProt Q9P0R6 115-139) [GSKIPtide (115–139) L130V]
no binding	SPAYREAPGNALLQRLEALKRDGQS (peptide, UniProt Q9P0R6 115-139) [GSKIPtide (115–139) F122P]
no binding	SPAYREAYGNALLQRLEALKRDGQS (peptide, UniProt Q9P0R6 115-139) [GSKIPtide (115–139) F122Y]
no binding	SPAYREAFGNAPLQRLEALKRDGQS (peptide, UniProt Q9P0R6 115-139) [GSKIPtide (115–139) L126P]
no binding	SPAYREAAGNALLQRLEALKRDGQS (peptide, UniProt Q9P0R6 115-139) [GSKIPtide (115–139) F122A]
no binding	SPAYREAFGNALLQRAEALKRDGQS (peptide, UniProt Q9P0R6 115-139) [GSKIPtide (115–139) L130A]
no binding	SPAYREAFGNALLQRPEALKRDGQS (peptide, UniProt Q9P0R6 115-139) [GSKIPtide (115–139) L130P]
no binding	SPAPREAFGNALLQRLEALKRDGQS (peptide, UniProt Q9P0R6 115-139) [GSKIPtide (115–139) Y118P]
no binding	SPAYREAFGNAALQRLEALKRDGQS (peptide, UniProt Q9P0R6 115-139) [GSKIPtide (115–139) L126A]
binds	B1
binds	B2
no binding	B3
binds	B4
no binding	B5
no binding	B6
binds	B7
binds	B8
binds	B9
binds	B10
binds	B11
binds	B12
no binding	B13
binds	B14
binds	B15
no binding	SPAYREAFGNAVLQRLEALKRDGQS (peptide, UniProt Q9P0R6 115-139) [GSKIPtide (115–139) L126V]
no binding	SPAAREAFGNALLQRLEALKRDGQS (peptide, UniProt Q9P0R6 115-139) [GSKIPtide (115–139) Y118A]
no binding	SPAFREAFGNALLQRLEALKRDGQS (peptide, UniProt Q9P0R6 115-139) [GSKIPtide (115–139) Y118F]
